Experimental data taken from the RNAGym collection of RNA variant scans (doi:10.1093/nar/gkz1192).
Read counts are not given, so values of variants with three or more changes are uncertain.

B1: CPEB3 Ribozyme (parent)
chain: UAACAGGGGGCCACAGCAGAAGCGUUCACGUCGCAGCCCCUGUCAGAUUCUGGUGAAUCUGCGAAUUCUGCUGUAUAUCUC

Variants of: B1
Assay: self-cleavage, relative activity (ratio to wild type); higher = more cleavage; in vitro, sequencing
How it was run: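 CPEB3 self-cleaving ribozyme mutant libraries were made by rounds of error-prone PCR, barcoded, and transcribed in vitro with T7 RNA polymerase for 5 hours at 37°C. Cleavage occurred during transcription and a 15 min DNase I step before EDTA stop. RNAs were reverse transcribed with template switching and Illumina-sequenced, with DNA sequencing mapping barcodes to variants. Relative activity is the variant's cleaved/total read fraction divided by wild type's (minimum 5 reads), averaged across three batches.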

Variant	self-cleavage
UAACAGGGGGCCACAGCGGAAGCGUCCACGUCGCUGCCCCUGUCAGAUUCUGGUGAAUCUGCGAAUUCUACUGUAUGUCUC [A18G U26C A35U G70A A77G]	0.07
UAACAGGGGGCCACAGCGGAAGCGUCCACGUCGCAGCCCCUGUCAGCUUCUGGUGAAUCUGCGAACUCGGCAGUAUAUCUC [A18G U26C A47C U66C U69G U72A]	0.06
UAACAGGGGGCCACAGCGGAAGCGUCCACGUCGCAGCCCCUGUCAGGUGCUGGUGAAUCUGCGAAUUCUGCUGUAUAUCUC [A18G U26C A47G U49G]	0.35
UAACAGGGGGCCACAGCGGAAGCGUCCACGUCGCAGCCCCUGUCAGAUUCUGGUGAUUCUGCGAAUCCUGCUGUAUAUCUC [A18G U26C A57U U67C]	0
UAACAGGGGGCCACAGCGGAAGCGUCCAUGCCGCAGCCCCUGUCGGAUCCUGGUGAAUCUGCGAAUUCUGCUGUACAUCUC [A18G U26C C29U U31C A45G U49C U76C]	0.08
UAACAGGGGGCCACAGCGGAAGCGUCCACGUUGCAGCCCCUGUCAGAUUCUGGUGAAUCUGCGAAUUCUGCUGUAUAUCAC [A18G U26C C32U U80A]	0.24
UAACAGGGGGCCACAGCGGAAGCGUCCACGUCGCAGCCCAUGUCGGAUUCUGGUGAAACUGCGAAUCCGGCUGUAUAUCUC [A18G U26C C40A A45G U58A U67C U69G]	0.06
UAACAGGGGGCCACAGCGGAAGCGUCCACGUCGCAGCCCCUGUCAGAUUAUGGUGAAUCUGCGAGUACUGCUGUAAAUCUC [A18G U26C C50A A65G U67A U76A]	0.08
UAACAGGGGGCCACAGCGGAAGCGUCCACGUCACAGCCCCUGUCAGAUUCUGGUGAAUCUGCGAAUUCUGCUGUAUAUCUC [A18G U26C G33A]	0.1
UAACAGGGGGCCACAGCGGAAGCGUCCACGUCACAGCCCCUGUCAGGUUCUGGUGAAUCUGCGGAUUCUGCUGUAUAUCUC [A18G U26C G33A A47G A64G]	0.18
UAACAGGGGGCCACAGCGGAAGCGUCCACGUCGCAGCCCCUGUCAGAUUCUAGUGGAUCUGCGAAUUCUGCCGUAUAUCUC [A18G U26C G52A A56G U72C]	0.15
UAACAGGGGGCCACAGCGGAAGCGUCCACGCCGCAGCCCCUGCCAGAUUCUGGUGAAUCUGCGAAUUCUGCUGUAUAUCUC [A18G U26C U31C U43C]	0.31
UAACAGGGGGCCACAGCGGAAGCGUCCACGCCGCAGCCCCUGUCAGAUUCCGGUGAAUCUGCGAAUUCUGCUGUAUAUCUC [A18G U26C U31C U51C]	0.06
UAACAGGGGGCCACAGCGGAAGCGUCCACGUCGCAGCCCCCGUCAGAUUCUGGUGAAUCUGCGAAUUCUGCUGUAUAUCUC [A18G U26C U41C]	0.32
UAACAGGGGGCCACAGCGGAAGCGUCCACGUCGCAGCCCCUGACGGAUUCUGGUGAAUCCGCGAAUUCUGCUGUAUAUCUC [A18G U26C U43A A45G U60C]	0.21
UAACAGGGGGCCACAGCGGAAGCGUCCACGUCGCAGCCCCUGCCGGAUUCUGGUGAAUCUGCGAAUUCUGCUGUAUAUCUC [A18G U26C U43C A45G]	0.38
UAACAGGGGGCCACAGCGGAAGCGUCCACGUCGCAGCCCCUGUCAGACUCUGGUGAAUCUGCGAAUUAUGCUGUAUAUCUC [A18G U26C U48C C68A]	0.35

Variant	self-cleavage
UAACAGGGGGCCACAGCGGAAGCGUGCACGUCGCAGCCCCUGUCAGAUUCUGGUGAAUCUGCGAAUUCUGCUGUAUUUCUC [A18G U26G A77U]	0.16
UAACAGGGGGCCACAGCGGAAGCGUGCACGUCGCAGCCUCUGUCAGAUUCUGGUGGAUCGGCGAAAUCUGCUGUAUAUAUC [A18G U26G C39U A56G U60G U66A C79A]	0.03
UAACAGGGGGCCACAGCGGAAGCGUUCACGACGCGGCCCCUGUCAGAUUCUGGCGAAUCUGCGAAUUCUGCUGUAUAUCUC [A18G U31A A35G U54C]	0.58
UAACAGGGGGCCACAGCGGAAGCGUUCACGACGCUGCCCCUGUCAGAUUCUGGUGAAUCUGCGAAUUCUGCUGUAUAUCUC [A18G U31A A35U]	0.24
UAACAGGGGGCCACAGCGGAAGCGUUCACGACGCAGCCCCUGUCAGAUUCUGGUGAGUCUGCGAAUUCUGCUGUAUAUCGC [A18G U31A A57G U80G]	0.26
UAACAGGGGGCCACAGCGGAAGCGUUCACGACGCAGCCCCUGUCAGAUUCUGGUGAAUCUGCGAGUCCUGCCGUAUAUCUC [A18G U31A A65G U67C U72C]	0.12
UAACAGGGGGCCACAGCGGAAGCGUUCACGACGCAGCCCCAGUCAGAUUCUGGUGAAUCUGCGAAUACUACUGUAUAUCUC [A18G U31A U41A U67A G70A]	0.23
UAACAGGGGGCCACAGCGGAAGCGUUCACGACGCAGCCCCUGUCAGAUUCUGGAGAAUCUGCGAAUUCUGCUGUAUAUCUC [A18G U31A U54A]	0.38
UAACAGGGGGCCACAGCGGAAGCGUUCACGACGCAGCCCCUGUCAGAUUCUGGCGAAUCUGCGAACUCUGCUGUAUAUCUC [A18G U31A U54C U66C]	0.18
UAACAGGGGGCCACAGCGGAAGCGUUCACGCCGCAGCCCCUGUCGGAUUCUGGUGAAUCUGCGAAUUCUGCUGUAUAUCUC [A18G U31C A45G]	0.13
UAACAGGGGGCCACAGCGGAAGCGUUCACGCCGCAGCCCCUGUCGGAUUCUGGUGAAUCUGCGAAUACUGCUGUAUAUCUC [A18G U31C A45G U67A]	0.05
UAACAGGGGGCCACAGCGGAAGCGUUCACGCCGCAGCCCCUGUCAGAUUCUGGUGAGUCUGCGAAUUCUGCUGUAUAUCUC [A18G U31C A57G]	0.53
UAACAGGGGGCCACAGCGGAAGCGUUCACGCCGCAGCCCCUGUCAGAUUCUGGUGAAUCUGCGGAUUCUGCUGUAUAUCUC [A18G U31C A64G]	0.2
UAACAGGGGGCCACAGCGGAAGCGUUCACGCCGCAGCCCCUGUCAGAUUCUGGUGAAUCUGCGAGCUCUGCUGUAUAUCUC [A18G U31C A65G U66C]	0.34
UAACAGGGGGCCACAGCGGAAGCGUUCACGCCUCAGCCCCUGUCAGAUUCUGGUGAAUCUGCGAAUUCUGCUGCAUAUCUC [A18G U31C G33U U74C]	0.23
UAACAGGGGGCCACAGCGGAAGCGUUCACGCCGCAGCCCCUGUCAGAUUCAGGAGAAUCUGCGGAUUCUGCUGUAUAUCUC [A18G U31C U51A U54A A64G]	0.15
UAACAGGGGGCCACAGCGGAAGCGUUCACGCCGCAGCCCCUGUCAGAUUCUGGUGAACCUGCGAAUUCUGCUGUAUAUCUC [A18G U31C U58C]	0.19
